Data: the supplement of paper PMC10126150
Values marked as one replicate rest on one cluster of the flow cell; about a third of the high ones do not repeat.

Tested on: ATP
Experiment: switch fluorescence ratio, 500 uM ATP over buffer (Cy3 cluster intensity, sum of 5 cycles each) (fold (ratio)); higher = stronger signal-on switching upon ATP binding; sequences stand for … in TCGTCGGCAGCGTCAGATGTGTATAAGAGACAGTTTTTTTTTTTTTTTTTTTTTTTTT…TC
Details: aptamer strand: ATP DNA aptamer (quencher-CACCTGGGGGAGTATTGCGGAGGAAGG + anchor), 100 nM annealed; ATP concentration: 500 uM; one replicate
Method in brief: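 For every switch-domain sequence, the fluorescence ratio is the mean of per-cluster values, each being summed target-cycle Cy3 intensity over summed buffer-cycle Cy3 intensity. Clusters outside 100-1000 RFU were excluded. On a modified Illumina MiSeq flow-cell, the Cy3-labelled switching-strand clusters were annealed to 100 nM quencher-labelled ATP aptamer, imaged in selection buffer and then after 15 min with 500 uM ATP at 22 °C. Five such cycles were run, with NaOH stripping and re-annealing between them.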
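Further: ATP exposure 15 min at 22 °C before imaging.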

| Sequence | switch fluorescence ratio |
| --- | --- |
| TATGCGGCGA | 1.02 |
| AAAAGGGCCT | 1.06 |
| TAACTACTG | 0.914 |
| TAGATGGGTA | 0.988 |
| AGCTGAATCA | 1.17 |
| AATGAAGGAG | 0.99 |
| GCTGCGGGGC | 0.977 |
| GGCACTCAGG | 1.06 |
| TTCTGATATT | 1 |
| GAATAACTGT | 0.989 |
| GCGGGTCCAA | 0.976 |
| ACCTCGTTCT | 1.02 |
| GATACTAACA | 1.15 |
| CGTAAAATC | 1.03 |
| CGAGCATCGA | 1.08 |
| TTAGACATCT | 0.998 |
| AATTGCCGGC | 0.985 |
| CTATGAGGAT | 0.991 |
| GGTAAAGAAC | 0.961 |
| AGGCTCGTCG | 0.982 |
| CGTGAGAACA | 0.989 |
| TAGTATATAT | 0.948 |
| TCTGTCAATT | 1.69 |
| TCGGCGGACT | 1.06 |
| AGCAACAGCT | 1.01 |

| Sequence | switch fluorescence ratio |
| --- | --- |
| ATCTACTAGG | 1.04 |
| ATGTTCTTAG | 1.03 |
| GTGGTTGCCC | 1 |
| GCTTCCGGTT | 1.24 |
| AAAACCTAGA | 0.97 |
| TTCTGTGG | 0.974 |
| TTCTTGAGTC | 0.999 |
| GTCAGAGCAT | 1.03 |
| TTGTGCGACA | 1 |
| CCCCAATTTA | 1.02 |
| GTGGGGTTGA | 0.984 |
| CGCCATGGCT | 1.01 |
| GGCATAGC | 1.01 |
| GCAACTAGGA | 1.08 |
| GTTATTAAGA | 1.03 |
| TGCCCCGGAA | 1.8 |
| CATGTCAGGT | 0.981 |
| CGTGGGTTG | 1.02 |
| ATTACGAGCT | 1.02 |
| CGTATTAGTG | 0.996 |
| TAGTTGCCCA | 1.02 |
| CGAAGTAGTT | 1.04 |
| GTATGAGGGG | 1.03 |
| TCTGAGCCCC | 1 |
| GTGAAGCGGG | 1.04 |

| Sequence | switch fluorescence ratio |
| --- | --- |
| TACAGAGCCG | 1.05 |
| GGGAGTTCTC | 1.03 |
| TAGAACCGAT | 1.12 |
| ACCTGGTCTA | 1.03 |
| CCGTTACATC | 1.52 |
| TCTAGTCCGG | 0.973 |
| GAGAGGAAGC | 0.963 |
| AAGTTCGAGT | 0.955 |
| TAGCACCAG | 1.05 |
| GACAAAATCG | 1.02 |
| GGAGGAGTCA | 0.994 |
| GGTTGTCCAT | 0.953 |
| GTGGACAGCG | 1.02 |
| AGCGGGGAAG | 1.03 |
| TGCCGAGTA | 1.05 |
| GACAACCTGT | 0.987 |
| GAATATTCAC | 0.996 |
| GTATCGGTT | 1.02 |
| GCACACTAGA | 1.01 |
| GAGGCGGCTT | 1.06 |
| AGAGATCGAT | 0.99 |
| GTGACTAAGA | 1.06 |
| CTCACATAGT | 1.02 |
| CAGTTCGTC | 0.969 |
| ATCAATGCAG | 1 |

| Sequence | switch fluorescence ratio |
| --- | --- |
| GGGCGTGCTT | 0.975 |
| AGGTATCCGG | 0.972 |
| GGTCAGGTAC | 1.05 |
| GAGGCCAGGT | 1.58 |
| GGTCAGACCG | 1.03 |
| GGTTATGTAT | 0.997 |
| CGACGGTTTA | 1.07 |
| TGCGGAATGA | 1.08 |
| GCACTGTAGC | 1.13 |
| TATGCATACG | 1.04 |
| CATTTTCCGT | 1.03 |
| CTGTTGATAG | 1.03 |
| CCTGTTGATC | 1 |
| AGTTCCCTAG | 0.988 |
| AGCAATGCTG | 1.63 |
| TATGCAGATC | 1.02 |
| TCGGTGAAGG | 0.987 |
| ATGCGTTCTC | 1 |
| ACGGGCTAAA | 1.02 |
| GCAACATGGG | 1.03 |
| TTTTAGATAC | 2.1 |
| TGAGAGGAAT | 0.965 |
| TGGAAACGC | 1.27 |
| TCTCTACCAA | 1.31 |
| TAACCGTAA | 1.31 |

| Sequence | switch fluorescence ratio |
| --- | --- |
| GCCGGGGCCG | 0.929 |
| ATGTGTTAAT | 1.04 |
| ATATGCGGAG | 0.993 |
| TAAGATAACG | 1 |
| CATTGTGCGG | 0.995 |
| TAAAGTCCCG | 0.978 |
| CGCGGACTGG | 1 |
| AGTGGGTCAG | 0.968 |
| ACAGAAGATC | 1.03 |
| ACAACTAATC | 1.06 |
| ATGAAGGCTG | 1.05 |
| CCCATGGTGA | 1.12 |
| CTATACCGGG | 1 |
| CGGTGACAAT | 1.01 |
| CCGGTCTTGT | 1.02 |
| TTTGCTACC | 1.05 |
| TTCCTGATTC | 1.42 |
| TACGGGACAT | 1.22 |
| TATGGCCCTT | 1.04 |
| GTGACAGGAG | 1 |
| GGTATTCTGG | 0.912 |
| TTCTGTCGCA | 1.35 |
| CTAGTCGTTA | 1.04 |
| TCCACCGAGG | 1.25 |
| TGCCTAGCAC | 1.03 |

| Sequence | switch fluorescence ratio |
| --- | --- |
| ATATCTGCAT | 1.08 |
| TTTCGACCCT | 1.07 |
| GGCTTAAGCT | 0.974 |
| CAGTAGGGGA | 0.974 |
| GCAACCGTGC | 1.08 |
| GGGAGGTGCG | 0.982 |
| GTAGAACTAA | 1.01 |
| CGATTGGAAT | 1.11 |
| AAATGTCGCA | 0.998 |
| TGAGGAATA | 1.02 |
| CTAGACCGCT | 1.09 |
| GACGGAAAGC | 1.88 |
| CGGACATGTG | 0.984 |
| AGATGACCTC | 1.01 |
| AATCGGCTA | 1 |
| GGGATATTGC | 1.03 |
| GCCGACAACC | 1.15 |
| GCTCTGCGGT | 2.07 |
| GAACGGCTGC | 0.979 |
| TACGGTATTT | 1.16 |
| TACAGTTGTC | 0.992 |
| TAAGGGTCTG | 1.01 |
| AGGGCCGGCT | 0.942 |
| AAGATGCCCA | 1.02 |
| TAGTTTATTG | 1.01 |

| Sequence | switch fluorescence ratio |
| --- | --- |
| GTTGCCGGAG | 0.956 |
| CGCTTGTGGC | 1.02 |
| ATTAGAGAGA | 1.04 |
| CCATCTTTCG | 0.967 |
| ATCAATGTGT | 0.967 |
| CTGGTTTAGA | 0.99 |
| TTTCACCTGC | 1.03 |
| TATTATCTAT | 1.03 |
| TCTCCCCGGA | 1.09 |
| TGGGCTCGCT | 1 |
| AGCTGCGGAG | 0.993 |
| GTTGGGCCCC | 0.993 |
| TAGCCCCACC | 1.05 |
| GGAGCTGCCA | 1.06 |
| CCATCACAAG | 1.05 |
| TGAGCCCGAG | 1.01 |
| CAGGATGCTC | 1 |
| AGTACACAGC | 1.07 |
| CGGGCGCACG | 1.05 |
| CGTGCTGTCA | 1.01 |
| CTATCATACT | 1.06 |
| ACGAGGAATG | 1.07 |
| CGTCACACGT | 0.999 |
| GGTGGAACCC | 0.961 |
| AAGTCAGCCC | 1.05 |

| Sequence | switch fluorescence ratio |
| --- | --- |
| CTTTGCCTGT | 0.975 |
| GGGGCTATGA | 0.974 |
| TAGCTTGCGC | 0.982 |
| GGAAGATTCC | 1.07 |
| ATAGTCGGTA | 1 |
| CCGTGTTGGA | 1.04 |
| ATGAAGCTAC | 4.89 |
| TCATACGC | 1.05 |
| CACCACCGAC | 1.46 |
| GTCATGGAAT | 0.98 |
| GAGCATAACT | 1.42 |
| ACTTAATCTG | 1.06 |
| CTTCGCTTGA | 1.07 |
| GTTCTGCAGG | 1.05 |
| TTTAGATAGC | 1.02 |
| AATTCGGCTC | 0.983 |
| AGCTAAAAAT | 1.02 |
| CCCGGCACAA | 1.68 |
| GAGCTGGTAG | 0.981 |
| GTTCATCTGT | 1.01 |
| CCTGCGGAT | 1.5 |
| GTTACGAGTC | 0.993 |
| ATGGCGCAAG | 0.987 |
| CCCGCCTTAA | 2.31 |
| ACTTTATATT | 1.06 |
